# According to the BET-seq Pho4 binding data (Le et al. 2018):
# This is one part of the list. The energies were worked out here from pooled read counts, against the library average; single values are noisy.
# Target: T1, Pho4 (S. cerevisiae) (UniProt P07270)
# T1 sequence: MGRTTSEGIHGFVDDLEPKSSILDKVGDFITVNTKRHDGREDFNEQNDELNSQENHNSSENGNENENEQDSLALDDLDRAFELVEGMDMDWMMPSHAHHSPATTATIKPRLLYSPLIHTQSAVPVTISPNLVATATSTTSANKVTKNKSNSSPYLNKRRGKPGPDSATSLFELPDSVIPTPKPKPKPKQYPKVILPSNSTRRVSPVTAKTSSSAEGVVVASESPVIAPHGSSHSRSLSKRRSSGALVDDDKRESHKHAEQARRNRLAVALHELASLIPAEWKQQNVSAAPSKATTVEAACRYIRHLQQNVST
# Test: relative binding free energy (BET-seq); higher = weaker binding
# Conditions: reference: library average
row,Sequence,relative binding free energy [kcal/mol]
1,AAGGTCACGTGATATG,0.23
2,ATGATCACGTGGACGT,0.15
3,ATTGTCACGTGGGTGC,0
4,CTGAGCACGTGTTGTG,-0.05
5,AAATCCACGTGGGTGT,0.01
6,GGCAGCACGTGAGTGT,0.32
7,ATGCGCACGTGGGTAG,-0.25
8,ATGAACACGTGGAGTG,-0.1
9,TTAATCACGTGTTTCT,0.08
10,AAGGTCACGTGCATTT,0.23
11,TATTGCACGTGGGTGA,-0.17
12,AAGCTCACGTGGGGGC,0.03
13,CATGACACGTGTGTGG,0.18
14,AGGGACACGTGGTTTG,0.05
15,TGCTGCACGTGTGGTG,0.08
16,TGGTACACGTGGTCTA,-0.17
17,GCGTGCACGTGGTGTT,-0.08
18,TTTCGCACGTGGGATA,-0.07
19,TTTTTCACGTGTGCCA,0.26
20,TATGTCACGTGGAAGT,0.11
21,TTGGGCACGTGGAGAC,0.1
22,AGACTCACGTGGGGGC,0.06
23,GATTCCACGTGGGGGT,-0.09

row,Sequence,relative binding free energy [kcal/mol]
1,GGGTACACGTGTAGCG,0.22
2,GGTGGCACGTGAGTGC,0.26
3,GTCGGCACGTGGGCCG,-0.14
4,TAAGACACGTGACGGG,0.13
5,TGCTACACGTGTAGGT,0.08
6,TTATTCACGTGGCGGG,0.23
7,GGTGTCACGTGTAGCA,-0.02
8,TTGTTCACGTGACATT,0.35
9,TAGTTCACGTGGTTCC,0.41
10,TGTGACACGTGATTAA,0.11
11,GTTGTCACGTGGGTTC,0.08
12,CGGTACACGTGTTTGT,-0.03
13,GGTGTCACGTGCGTTC,0.08
14,CGGTTCACGTGGACGT,0.28
15,GTGAGCACGTGTGGGC,0.01
16,TGATCCACGTGGTGAA,0.23
17,CAAAGCACGTGGTGTT,-0.21
18,CAGCTCACGTGGTTGT,0.36
19,TAGGGCACGTGAGATG,0.16
20,CTCGTCACGTGTGGCT,0.18
21,TTATTCACGTGCTTGA,0.05
22,CTGGACACGTGGTGTT,-0.02
23,GTGGGCACGTGTGCTG,-0.11

row,Sequence,relative binding free energy [kcal/mol]
1,ATATTCACGTGTCTGT,0.2
2,TGAGCCACGTGTGCGG,-0.15
3,TTAATCACGTGGGGCT,0.02
4,AGTTCCACGTGTGTTG,0.04
5,GTGGACACGTGTTTTT,0.14
6,AATAGCACGTGGCAGG,-0.21
7,TAGGGCACGTGGTTCT,-0.11
8,AGGTTCACGTGTGTCC,0.3
9,TAGGTCACGTGCGGAA,0
10,CTGGACACGTGTTGTG,-0.02
11,GCGTTCACGTGAGTTT,0.21
12,TGATTCACGTGTTCAT,0.22
13,TGAAGCACGTGTTGGC,-0.05
14,TCTAGCACGTGGGTAG,-0.19
15,CGTGTCACGTGATGGC,0.27
16,CGATTCACGTGTTGAA,0.36
17,GTACGCACGTGTGGTA,0
18,AGTCGCACGTGTGTAG,-0.16
19,ATTGGCACGTGGAATC,0.01
20,ATGGCCACGTGCGGGA,-0.14
21,TGTTGCACGTGGAGGT,0.04
22,ATGGACACGTGGTGCT,-0.03
23,TAGCGCACGTGAGATG,0.18

row,Sequence,relative binding free energy [kcal/mol]
1,CTCATCACGTGGGTAT,0.07
2,AGAGTCACGTGTTTGT,0.12
3,CATCGCACGTGGGGTT,-0.27
4,CGCAACACGTGAGGGG,0.27
5,TTGTACACGTGGGGCA,-0.27
6,TGTACCACGTGTGTGA,-0.08
7,ATGGTCACGTGGTGGA,0.03
8,TTCTTCACGTGAGAGT,0.34
9,AAATTCACGTGGTAGG,0.18
10,GCGGTCACGTGGGTCT,0.06
11,TGTTACACGTGAGCGG,0.17
12,GTCAGCACGTGAGTTG,0.19
13,TATCGCACGTGGTATG,-0.25
14,TACATCACGTGGTTGT,0.06
15,GTGATCACGTGGTTAA,0.18
16,GTTCGCACGTGCGGGC,-0.02
17,AGGGTCACGTGGATGA,0.16
18,GGCAGCACGTGTGAAG,0.09
19,AGGTGCACGTGTCGGA,0.05
20,GTTCGCACGTGTGCTA,0.11
21,CTGTTCACGTGTTTCA,0.26
22,TCGGGCACGTGGTGGC,-0.1
23,TCTGTCACGTGCAGGG,0.06

row,Sequence,relative binding free energy [kcal/mol]
1,TTGCACACGTGAGATG,0.34
2,TGTGTCACGTGTGAAA,0.23
3,TGCAGCACGTGATGGG,0.09
4,TTGGCCACGTGATTTT,0.1
5,GGTGACACGTGTTACG,0.13
6,AGATGCACGTGATGCT,0.08
7,TTTGCCACGTGGTCGG,-0.19
8,AGAGGCACGTGTATAA,-0.06
9,TGGTGCACGTGTTTGG,0.02
10,CTGGGCACGTGATATT,0.01
11,GCGGTCACGTGGGGTA,0.02
12,GTAGGCACGTGGCTTA,-0.15
13,TGGGGCACGTGATCCG,-0.06
14,GTTGTCACGTGAGGCC,0.4
15,TGATTCACGTGATTGG,0.23
16,ACATTCACGTGAGTTG,0.32
17,TAGTCCACGTGGAGTG,-0.01
18,GTCGGCACGTGTGGTG,0.06
19,ATCTTCACGTGTCGGT,0.14
20,AGGGGCACGTGTAATA,0.02
21,CTTGGCACGTGCTGGC,0.03
22,ATGATCACGTGAGTGA,0.36
23,TCAGGCACGTGTAATT,0.07
